Assay results taken from the RNAGym collection of RNA variant scans (doi:10.7554/elife.90254).
Read counts are not given, so values of variants with three or more changes are uncertain.

B1: LINE1-mini (parent)
chain: GGCAGAGCUCAACACAGCGUGGCAAAGUGGCUGUGGCUAGACUGCC

Variants of: B1
Test: self-cleavage, relative activity (ratio to wild type); higher = more cleavage; in vitro, sequencing; the parent is a self-cleaving ribozyme

Question: For G2C U34G A39C, which self-cleavage is on record?
Answer: 0.02

Question: Which self-cleavage does the source give for C10G A12C C13U G21C G33A G36A here?
Answer: 0

Question: For C13A C23A G29A A39C, which self-cleavage is on record?
Answer: 0.01

Question: With G1C G5A A12C G29U as the variant, how does the self-cleavage read?
Answer: 0.01

Question: Which self-cleavage does the source give for G5U G7C A25C here?
Answer: 0.02

Question: Which self-cleavage does the source give for G2U C8G C42A here?
Answer: 0.04

Question: For G19A U28C A39G C42U, which self-cleavage is on record?
Answer: 0.03

Question: For A41U G44C C46G, which self-cleavage is on record?
Answer: 0.1

Question: For C3G A25C U38A, which self-cleavage is on record?
Answer: 0.04

Question: Which self-cleavage does the source give for A11C C15A G19A here?
Answer: 0.02

Question: With G5A C23G G33U as the variant, how does the self-cleavage read?
Answer: 0.13

Question: With C8G A16C U28A G33U A39U as the variant, how does the self-cleavage read?
Answer: 0

Question: For U20C C37A C45U, which self-cleavage is on record?
Answer: 0.06

Question: For C3A G17U G36U G44U, which self-cleavage is on record?
Answer: 0.08

Question: For G5U G17C G30C C42U G44U, which self-cleavage is on record?
Answer: 0.06

Question: For G21U U28G G35U, which self-cleavage is on record?
Answer: 0.06

Question: For C8G U28G G36U G44C, which self-cleavage is on record?
Answer: 0.04

Question: For G35A U43A C46U, which self-cleavage is on record?
Answer: 0.03

Question: With C3G C13A G35A as the variant, how does the self-cleavage read?
Answer: 0.07

Question: With A12U U28A U32G A39C A41U as the variant, how does the self-cleavage read?
Answer: 0.01

Question: For U20G G21U C23A G40A, which self-cleavage is on record?
Answer: 0.17

Question: Which self-cleavage does the source give for A16U C18G G22C A41C here?
Answer: 0.03

Question: For U9A A12C C46U, which self-cleavage is on record?
Answer: 0.1

Question: For G1U C10A G19A A25C C37G, which self-cleavage is on record?
Answer: 0

Question: With G7A A11C A24U A39G as the variant, how does the self-cleavage read?
Answer: 0.01

Question: Which self-cleavage does the source give for G19U U20A G30C U34A here?
Answer: 0.05

Question: For G2A U20C U38G, which self-cleavage is on record?
Answer: 0.02

Question: For G1A C10A C18U, which self-cleavage is on record?
Answer: 0.05

Question: Which self-cleavage does the source give for G21C G27C G33A here?
Answer: 0.09

Question: With C13U G17U U38A C45U as the variant, how does the self-cleavage read?
Answer: 0.03

Question: For C8U C13U G17A G29C C42A, which self-cleavage is on record?
Answer: 0.27

Question: Which self-cleavage does the source give for A4G G33A U38G here?
Answer: 0.03

Question: With A4U U20G G22C U38G as the variant, how does the self-cleavage read?
Answer: 0.01

Question: With G22A C31U C45A as the variant, how does the self-cleavage read?
Answer: 0.14

Question: Which self-cleavage does the source give for G1A A12U A25G G27C A39U G40C here?
Answer: 0.04

Question: With G27C G40C C42U as the variant, how does the self-cleavage read?
Answer: 0.03

Question: With C23U G33C A41C as the variant, how does the self-cleavage read?
Answer: 0.05

Question: Which self-cleavage does the source give for G5A G7U G27U G33U U34C U38C here?
Answer: 0.08

Question: For C10A G30U G36U, which self-cleavage is on record?
Answer: 0

Question: With C23U A26G G30C U32A C37A G44C as the variant, how does the self-cleavage read?
Answer: 0.08

Question: With G2U A4G C8G U9C A24C U28C G44C as the variant, how does the self-cleavage read?
Answer: 0.01

Question: With G22U A41G C45U as the variant, how does the self-cleavage read?
Answer: 1.03

Question: For A12U U32C U38A, which self-cleavage is on record?
Answer: 0.04

Question: With A6C U20G U32C C42U as the variant, how does the self-cleavage read?
Answer: 0.02

Question: For A16U A39G C46A, which self-cleavage is on record?
Answer: 0

Question: Which self-cleavage does the source give for G5U C15G U20A G36U C46A here?
Answer: 0.04

Question: For G7A U9G C18U G35U U38A, which self-cleavage is on record?
Answer: 0.01

Question: With C3G U9G U32A C45A as the variant, how does the self-cleavage read?
Answer: 0

Question: Which self-cleavage does the source give for C3A A6C G36C A39C A41C here?
Answer: 0.17

Question: With A14C U20G U43C as the variant, how does the self-cleavage read?
Answer: 0.13

Question: For G7A A16C G40C G44C, which self-cleavage is on record?
Answer: 0.03

Question: Which self-cleavage does the source give for A11U A12G A16C U20A here?
Answer: 0.04

Question: For C10U C18U G30A C46U, which self-cleavage is on record?
Answer: 0.04

Question: With G1U G40C A41U as the variant, how does the self-cleavage read?
Answer: 0.07

Question: Which self-cleavage does the source give for G1A C10A U38A C42U here?
Answer: 0.06

Question: With G7U G40U C42A as the variant, how does the self-cleavage read?
Answer: 0.2

Question: With G7U C18U C23G U28A C46U as the variant, how does the self-cleavage read?
Answer: 0.02

Question: For C13G U34C U43G, which self-cleavage is on record?
Answer: 0.03

Question: With G1A G27A G33A U34G as the variant, how does the self-cleavage read?
Answer: 0.02

Question: Which self-cleavage does the source give for A24C G27A U43G G44U here?
Answer: 0.05

Question: For G1C G7A G30C, which self-cleavage is on record?
Answer: 0.06

Question: Which self-cleavage does the source give for A12U A14G G19C U38A here?
Answer: 0.01

Question: Which self-cleavage does the source give for G2U G40C C42G C46G here?
Answer: 0.02

Question: With A4G C8A G21U A24G G35A C37U A39U as the variant, how does the self-cleavage read?
Answer: 0.03

Question: For C15G C45G C46U, which self-cleavage is on record?
Answer: 0.01

Question: For U9G A16G G21U G36C C42U, which self-cleavage is on record?
Answer: 0.01

Question: Which self-cleavage does the source give for U9C G19C A25U C42G here?
Answer: 0

Question: Which self-cleavage does the source give for G17U G21U A26G G35C here?
Answer: 0.02

Question: Which self-cleavage does the source give for G21U G30C G35C here?
Answer: 0.05

Question: Which self-cleavage does the source give for A4G G7A G35C C42G here?
Answer: 0.19

Question: Which self-cleavage does the source give for G1C C13A U32G here?
Answer: 0.02

Question: Which self-cleavage does the source give for A6G C13A C18A C31G G33C here?
Answer: 0.02

Question: With C3U A6C G17U as the variant, how does the self-cleavage read?
Answer: 0.12

Question: For G17C G27U C31A, which self-cleavage is on record?
Answer: 0.56

Question: Which self-cleavage does the source give for G5U C23G C46G here?
Answer: 0.2

Question: For C3A A25C G27U U38A, which self-cleavage is on record?
Answer: 0.31

Question: For G7U C15A G22C, which self-cleavage is on record?
Answer: 0.14

Question: With U9G U32C G36C as the variant, how does the self-cleavage read?
Answer: 0.04

Question: For G2C C10G G19A G35A A41G, which self-cleavage is on record?
Answer: 0.01

Question: With G1A C13A G27U U34G as the variant, how does the self-cleavage read?
Answer: 0.04

Question: Which self-cleavage does the source give for G2A G5U C15U G40U here?
Answer: 0.59

Question: Which self-cleavage does the source give for C3G C23G G35A G36A U38G here?
Answer: 0.09

Question: With A4U G5A C31G G44U as the variant, how does the self-cleavage read?
Answer: 0.03
